#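 Interpolation was linear, between the two tested concentrations surrounding the appropriate level; five concentrations were tested over 48 hours in 96-well plates. At the GI50, growth is halved. At the TGI there is no net growth.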
# Tested on: NCI-H322M lung
# Assay: NCI tumour cell line growth inhibition, 48 h
SMILES,TGI [µM],GI50 [µM]
O=C1c2cccnc2-c2nccc3c2c1nc1cc(Br)ccc13,0.343,
CCn1c(-c2ccc(OC(C)=O)cc2)c(C)c2cc(OC(C)=O)ccc21,> 100,
CN(CCC#N)c1ccc(/C=C(\C#N)c2ccc(Br)cc2)cc1,> 100,> 100
Cn1c2ccccc2c(=NNc2cccc(C(=O)O)c2)c2ccccc21,71.9,
CC(C)(C)OC(=O)NCCCNC1(c2cc3ccccc3s2)CCCCC1,27.5,
CC(C)(C)C(=O)CC1=Nc2ccccc2SC1(O)CC(=O)C(C)(C)C (stereo not drawn),> 100,
CCCSc1nc(COC(=O)NC)c(COC(=O)NC)n1C,> 100,
CC(C(O)Cc1ccccc1)N(C)N=Nc1ccc([N+](=O)[O-])cc1 (stereo not drawn),81,
O=C1NC(=O)C(CC2CCCCCCCCCCC2=O)C(=O)N1 (stereo not drawn),> 100,
CN1C2CCC1CC(C)(O)C2 (stereo not drawn),> 100,
O=C(O)c1ccc(OCc2nc3cc(C(F)(F)F)ccc3nc2-c2ccccc2)cc1,> 100,
CC1=C[C@H]2c3c(c(O)c(O)c4oc(-c5ccccc5)cc(=O)c34)[C@H](c3cc(O)c(O)c4oc(-c5ccccc5)cc(=O)c34)[C@H]2C(C)(C)C1,10.5,1.56
C=C1CCC(CC[C@@H]2CC[C@]3(OC2)O[C@@]2(O)CC[C@]3(C)OC2(C)C)C(C)(C)[C@H]1C/C=C1/C(=O)OC[C@@H]1O (stereo partly drawn),17.2,
O=C1/C(=C/c2cccc([N+](=O)[O-])c2)COc2ccc(Br)cc21,> 100,
Cc1ccc(O)c(-c2cscn2)c1,> 100,
CCOC(=O)c1ccc(C)c(N=NN(C)C)c1,> 100,
O=C1C(=Cc2ccccc2O)N=C(c2ccccc2)N1n1c(-c2ccccc2)nc2ccccc2c1=O,> 100,
O=NN(CCCl)C(=O)NC1CCC(O)CC1 (stereo not drawn),> 100,
O=C(NCO)NCOCn1c(=O)n(CO)c(=O)n(CO)c1=O,> 100,
ClCC[N+]12CC[N+](CCCl)(CC1)C2,> 100,
COc1cc(NC(C)CCCN)c2nccc(C)c2c1 (stereo not drawn),55.4,
O=C(O)/C=c1/c2ccccc2n2nc3ccccc3c12,72.6,
CC(=O)O[C@H]1CC[C@@]2(C)C(=CC[C@H]3[C@@H]4C[C@H](N5CCOCC5)[C@H](OC(C)=O)[C@@]4(C)CC[C@@H]32)C1,> 100,
NNC(=O)CSc1nc2ccccc2c(=O)n1N,> 100,
COc1ccc(N2C(=O)CSC2c2c[nH]c3ccccc23)cc1 (stereo not drawn),> 100,
CC(C)(Cl)C(Br)CCC(=CCCl)CBr (mixture of isomers),11.8,
COc1ccc(C(=O)COc2ccc(/C=C3\COc4ccc(OC)cc4C3=O)cc2)cc1,> 100,> 100

SMILES,TGI [µM],GI50 [µM]
Clc1ccc2c(c1)-c1c3c(nn1-c1ccccc1)-c1ccccc1SC3O2 (stereo not drawn),> 100,
NC(=O)NCc1c(C(N)=O)ncn1Cc1ccccc1,> 100,
CCOC(=O)NC(Nc1cccc(C(F)(F)F)c1)(C(F)(F)F)C(F)(F)F,> 100,
CC(C)CC(O)P(=O)(O)O (stereo not drawn),> 100,
ClCc1cccc(Cn2cnc3nc(Cl)nc(Cl)c32)c1,27,14.1
Cn1c(COC(=O)Nc2ccccc2)c(COC(=O)Nc2ccccc2)c2ccc3cc(Cl)c(Cl)cc3c21,26.1,
CC(CO)(CO)NCCCCn1ccc2c1C(=O)c1c(c(O)c3ccccc3c1O)C2=O,21.8,8.79
COc1c(CCl)cc(-c2cc(=O)c3ccccc3s2)cc1CCl,> 100,
CC1=C(CO)C(=O)O[C@@H]([C@@H](CO)[C@H]2CCC3C4C[C@@H](O)[C@@]5(O)CC=CC(=O)[C@]5(C)C4CC[C@@]32C)C1 (stereo partly drawn),> 100,
COc1ccc(C2OC(c3ccncc3)=NN2C)cc1OC (stereo not drawn),> 100,
S=C1OC2CCCC[C@H]2O1 (stereo partly drawn),> 100,
CCC(=O)ONC(=O)Cn1ccc([N+](=O)[O-])n1,> 100,
CCOc1ccc(/C=C2/C(=O)N=C(NC(C)=O)N2C)cc1,> 100,
CN(C)c1ccc(C2SCC(=O)N2c2ccc(Oc3ccc(Cl)cc3)c(Cl)c2)cc1 (stereo not drawn),84.4,
Nc1nc(F)nc2c1ncn2C1OC(CO)C(O)C1O (stereo not drawn),> 100,
C[C@H](O)C(=O)N1CCC(CCn2c(Sc3cc4c(cc3Br)OCO4)nc3c(N)ncnc32)CC1,> 100,
O=C(/C=C\c1ccc(NCc2ccc(C(=O)O)cc2)cc1)CCl,32.1,17.4
O=C1O[C@H](c2ccc3c(c2)OCO3)[C@H]2CO[C@@H](c3ccc4c(c3)OCO4)[C@@H]12,> 100,
CSC(C1c2ccccc2N(c2ccc(C)cc2)c2[nH]c(=O)n(C)c(=O)c21)S(=O)(=O)c1ccc(C)cc1 (stereo not drawn),> 100,
CC(=O)[C@@]1(O)CC[C@H]2[C@@H]3C[C@H](C)C4=CC(=O)C=C[C@]4(C)[C@@]3(F)[C@@H](O)C[C@@]21C,> 100,
CCNC(=O)Nc1cccc(NC(=O)NCC)n1,> 100,
COc1ccc(-c2nn(-c3ccc(NC(=O)Nc4cc(C(F)(F)F)cc(C(F)(F)F)c4)cc3)cc2-c2ccncc2)cc1Cl,> 100,3.27
Br[C](Br)(Br)[Hg][c]1ccccc1,30.9,17.1
O=C1NC2OC(C(O)CO)C(O)C2O1 (stereo not drawn),> 100,
O=S(=O)(Nc1cc(Sc2cccc3cccnc23)c(O)c2ccccc12)c1ccccc1,13.7,2.31
Nc1ccn(C2CCC(CO)O2)c(=O)n1 (stereo not drawn),> 1000,> 1000
